Measurements published in article PMC4336329 (PLoS ONE, 2015).
About 14,000 (4.5%) of roughly 310,000 compounds showed an effect of 50% or more. The effect is printed as a negative number. This is one part of the list.

target: human ether-à-go-go-related gene (hERG) potassium channel (human, UniProt Q12809); test: primary screen, population patch clamp on CHO cells stably expressing hERG
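Note: peak tail current of the secondary pulse compared with the same well before compound.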

human ether-à-go-go-related gene (hERG) potassium channel, sequence (Q12809 whole entry, looked up): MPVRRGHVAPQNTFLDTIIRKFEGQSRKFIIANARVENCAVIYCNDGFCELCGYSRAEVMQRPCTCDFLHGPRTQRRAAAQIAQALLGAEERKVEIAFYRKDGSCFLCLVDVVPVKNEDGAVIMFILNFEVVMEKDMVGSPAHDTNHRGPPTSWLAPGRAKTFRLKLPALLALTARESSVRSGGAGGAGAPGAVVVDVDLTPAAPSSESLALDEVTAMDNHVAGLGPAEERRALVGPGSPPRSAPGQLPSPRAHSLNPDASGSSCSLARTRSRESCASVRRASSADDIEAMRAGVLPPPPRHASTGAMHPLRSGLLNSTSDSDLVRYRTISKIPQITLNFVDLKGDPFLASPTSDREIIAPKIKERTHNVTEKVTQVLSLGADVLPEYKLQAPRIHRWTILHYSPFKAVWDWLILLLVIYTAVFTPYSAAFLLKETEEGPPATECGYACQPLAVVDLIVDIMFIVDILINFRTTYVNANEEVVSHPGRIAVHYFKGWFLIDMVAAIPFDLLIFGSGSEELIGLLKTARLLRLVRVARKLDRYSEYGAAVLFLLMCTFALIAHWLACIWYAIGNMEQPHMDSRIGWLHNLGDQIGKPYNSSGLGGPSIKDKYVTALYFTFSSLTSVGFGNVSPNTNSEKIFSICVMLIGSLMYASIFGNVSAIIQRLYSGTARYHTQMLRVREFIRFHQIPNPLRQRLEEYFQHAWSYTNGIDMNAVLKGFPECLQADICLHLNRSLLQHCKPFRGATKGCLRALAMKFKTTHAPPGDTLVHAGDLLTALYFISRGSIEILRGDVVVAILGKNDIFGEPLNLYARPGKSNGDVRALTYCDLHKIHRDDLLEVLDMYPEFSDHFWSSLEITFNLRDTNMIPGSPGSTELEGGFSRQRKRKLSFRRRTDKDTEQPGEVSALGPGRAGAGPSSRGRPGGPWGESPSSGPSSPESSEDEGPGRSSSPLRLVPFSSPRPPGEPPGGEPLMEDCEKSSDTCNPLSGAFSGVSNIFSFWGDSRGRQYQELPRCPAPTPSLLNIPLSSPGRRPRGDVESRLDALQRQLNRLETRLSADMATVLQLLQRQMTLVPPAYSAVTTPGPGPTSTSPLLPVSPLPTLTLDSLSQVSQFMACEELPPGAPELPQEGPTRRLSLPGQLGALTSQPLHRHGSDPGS

SMILES | hERG current change (%, negative = inhibition) at 10uM
O=C(O)/C=C\C(=O)Nc1ccc(N2CCN(c3ccc(Cl)cc3)CC2)cc1 | 28.2%
CCCCn1c(N)c(N(CC(C)C)C(=O)CSCC(=O)Nc2ccc(C)cc2)c(=O)[nH]c1=O | 16.6%
COc1ccc(CCN(Cc2cccs2)S(=O)(=O)c2ccc(-n3cnnn3)c(OC)c2)cc1OC | 10.4%
CCn1cc(C(=O)N[C@@H](C)C(=O)OC)c(=O)c2cc3c(cc21)OCO3 | -3.85%
Cc1c(NC(=O)Cc2cccs2)cccc1[N+](=O)[O-] | 12.8%
CC(=O)N=c1sc2nc3ccccc3nc2n1N(C(C)=O)C(C)=O | 26.3%
OCC1(Cc2ccccc2)CCN(Cc2cnc(-c3cccc4ccccc34)nc2)CC1 | 10.8%
Cn1c(=O)c2c(nc(SCC(=O)O)n2Cc2cc3c(cc2Cl)OCO3)n(C)c1=O | 6.88%
CC(C)NC(=O)c1cc(-c2ccco2)nn1-c1ccc(Cl)cc1 | -27.4%
CCOCCCNC(=O)NC12CC3CC(CC(C3)C1)C2 | 13.5%
COc1ccc(NC(=O)CC2CCCC2)cc1S(=O)(=O)N1CCCCC1 | -35.8%
O=C(CNC(=O)c1ccc([N+](=O)[O-])cc1)N/N=C/c1c[nH]c2ccccc12 | 4.16%
CC(=O)Nc1cc2c3c(c1)CCC(=O)N3CCC2 | 20.3%
COc1ccc(CC/C(C)=N\NC(N)=O)cc1 | 14.2%
CCCC(=O)Nc1nc(-c2ccccc2)c(CC)s1 | 0.584%
COc1ccc(S(=O)(=O)c2c(C)c(NS(=O)(=O)c3ccccc3)cc(C)c2O)cc1 | 11.1%
Cc1ccc([C@@H]2[C@@H]3C(=O)N(C)C(=O)[C@@H]3[C@]3(Cc4ccccc4)C(=O)N(Cc4ccccn4)CC(=O)N23)o1 | 16.8%
CN1CCN(S(=O)(=O)c2cccc(C(=O)Nc3ccccc3N3CCOCC3)c2)CC1 | 1.78%
COc1ccc(S(=O)(=O)N2CCOCC2)cc1OC | 0.287%
O=C(OCc1ccc2c(c1)OCO2)c1ccc(S(=O)(=O)N2CCCC2)cc1 | -12.7%
CCC(=O)N1c2ccc(S(=O)(=O)N3CCN(C)CC3)cc2CC1C (stereo not drawn) | 7.54%
Cc1ccc(/C=C2\SC(=S)N(CC(=O)Nc3cccnc3)C2=O)cc1 | 19.4%

SMILES | hERG current change (%, negative = inhibition) at 10uM
O=C1NC(c2cccc(Cl)c2)Oc2ccccc21 (stereo not drawn) | 15.8%
CN1C(=O)c2ccccc2C(C(=O)O)C1c1cccc([N+](=O)[O-])c1 (stereo not drawn) | 24.4%
Cc1ccc(C)c(N2CCN(C(=O)c3ccc(N4CCCC4=O)cc3)CC2)c1 | -37.2%
COc1ccc(-c2coc3cc(OC)cc(O)c3c2=O)cc1 | 24.5%
CN1CCN(c2nc3ccccc3nc2C(C#N)S(=O)(=O)c2ccccc2)CC1 (stereo not drawn) | -6.42%
Cc1cccc(OCC(=O)NCc2ccc(F)cc2)c1 | 2.54%
CCOP(=O)(OCC)C(C)(C)NC(=O)c1cc([N+](=O)[O-])cc([N+](=O)[O-])c1 | 7.07%
COc1ccc(OCc2nc3c4c(ncn3n2)-c2ccccc2CC42CCCC2)cc1 | 6.66%
O=C(O)[C@H](CO)Nc1ncnc2sc3c(c12)CCC3 | -0.873%
CCOc1ccc(NC(=O)c2ccc(Cl)c(NC(=O)c3ccco3)c2)cc1 | 2.06%
O=C(Cc1coc2ccc3ccccc3c12)N1CCN(c2ncccn2)CC1 | 5.86%
CCN(CC)C(=O)Oc1ccc(OC(=O)N(CC)CC)cc1 | 14.6%
CCCc1cc(-c2n[nH]c(C(=O)OCC)c2-c2cscn2)c(O)cc1O | 0.233%
COc1ccc(Cc2n[nH]c(=S)o2)cc1 | 21.1%
CCCCOc1cccc(C2(C(=O)O)CCCC2)c1 | -35.4%
C=CCSc1nnc(C)c(/C=C/Nc2ccc(Cl)cc2)n1 | -9.44%
CCOC(=O)C1(Cc2ccccc2C)CCCN(C(=O)c2sccc2C)C1 (stereo not drawn) | -5.43%
NS(=O)(=O)c1cccc(NC(=O)COC(=O)Cn2cc(C(F)(F)F)ccc2=O)c1 | 28%
CCCCOP(=O)(OCCCC)/C(C#N)=C(/C)O | 13.1%
CC1CCC2(CC1)NC(=O)N(Cc1cccc(C(F)(F)F)c1)C2=O (stereo not drawn) | 12.9%
CC(C)c1ccc(C2NC(=O)CCC2[N+](=O)[O-])cc1 (stereo not drawn) | -4.22%
Cc1ccc(N=Nc2c(C)[nH]n(-c3ccccc3)c2=O)cc1Br | 15.7%

SMILES | hERG current change (%, negative = inhibition) at 10uM
COC(=O)CCCn1nc(NC(=O)c2ccco2)cc1C | 8.94%
COc1ccc(S(=O)(=O)NCc2ccco2)cc1NC(=O)c1ccccc1 | -5.92%
Cn1cc(Br)c(C(=O)Nc2ccc3c(C(F)(F)F)cc(=O)oc3c2)n1 | 8.85%
CCCN(CC(=O)Nc1ccccc1C)C(=O)Cc1n[nH]c(=O)c2ccccc12 | -10.2%
Cc1cc(NCc2ccc(F)cc2)nc2cc(Cl)ccc12 | 15.1%
O=C(CSc1nnc(-c2cccs2)n1-c1ccccc1)N1CCCc2ccccc21 | -15.6%
Cc1ccc(S(=O)(=O)N2CCN(C(=O)c3cc(S(=O)(=O)N(C)C)ccc3N3CCCC3)CC2)cc1 | -11.1%
Cc1cc(C)c2c(C)c(C(=O)Nc3c(C)n(C)n(-c4ccccc4)c3=O)oc2c1 | -16.7%
COc1ccc(-c2cc3nc(C)cc(-c4ccc(OC)cc4)n3n2)cc1 | 18.6%
Cc1ccc(OCCNC(=O)c2ccc(COc3ccccc3)o2)cc1 | -11.6%
Cc1nn(CCOc2ccccc2)c(=O)n1-c1ccccc1F | 12.8%
CC(=O)c1cccc(NC(=O)N2CCc3ccccc3C2)c1 | 2.24%
O=C(COC(=O)c1ccc(NC(=O)C2CC=CCC2C(=O)O)cc1)c1ccccc1 (stereo not drawn) | 13.9%
CCc1ccc2[nH]c(C)c(CN3CCCCCC3)c(=O)c2c1 | -46.9%
CCOC(=O)c1c(S(=O)(=O)NCC(=O)Nc2cc(C)ccn2)c(C)n(C)c1C | -10.7%
O=C(Nc1ccccc1)c1sc(Cl)nc1-c1ccccc1 | -24.9%
COc1cc(C2N(c3cc(C)on3)C(=O)C3CCCN32)cc(OC)c1OC (stereo not drawn) | 10.4%
COc1nc(OC)nc(Oc2ccc(Cl)cc2[N+](=O)[O-])n1 | 1.26%
COc1ccccc1N(CN1CCCC1=O)C(=O)COc1ccccc1 | 3.46%
CSCC[C@H](NC(=O)OC(C)(C)C)c1nnc(SCC(N)=O)o1 | -1.72%
COC(=O)c1c(NC(=O)C(C)(C)C)sc2c1C(C(=O)OC)CC2 (stereo not drawn) | 0.0572%
CN1CCN(c2nc(-c3ccccc3)c3cc(Cl)ccc3n2)CC1 | -48.1%

SMILES | hERG current change (%, negative = inhibition) at 10uM
COc1cc(C2C(C(=O)Nc3ccccc3OC)=C(C)Nc3ncnn32)ccc1O (stereo not drawn) | 14.1%
O=C(CCN1C(=O)S/C(=C\c2ccccc2)C1=O)N1CCOCC1 | -5.35%
CC(C)CNS(=O)(=O)c1ccc(CCC(=O)NC2CCCCC2)cc1 | 6.6%
Cc1cccc(NC(=O)CSc2nnc(-c3ccccc3)n2N)c1 | 6.48%
Cc1cc(C)cc(N(CCC#N)C(=O)COC(=O)C2CCN(c3ccc(C(F)(F)F)cn3)CC2)c1 | -29.3%
O=C(O)C1C2CCC(C2)C1C(=O)Nc1nc2ccccc2s1 (stereo not drawn) | 17.2%
O=C(c1cccc(Br)c1)N1CCN(C(=O)N2CCOCC2)CC1 | 10.4%
Cc1ccc2c(c1)cc(CN(Cc1cccnc1)C(=O)NCc1ccccc1)c1nnnn12 | -75.2%
Cc1c(C=O)n(C)n(-c2ccccc2)c1=O | 11.5%
CCC(C)NC(=O)C1CCN(S(=O)(=O)CC)CC1 (stereo not drawn) | 4.01%
N=c1c(S(=O)(=O)c2ccc(Cl)cc2)cc2c(=O)n3ccccc3nc2n1CC1CCCO1 (stereo not drawn) | -13.3%
COc1ccc(N2C(=O)CCC(C(=O)O)C2c2ccccc2OC)cc1 (stereo not drawn) | -8.85%
CCN(CC(=O)Nc1c(F)cccc1F)C(=O)c1ccc(C)c(S(=O)(=O)N2CCCCC2)c1 | 0.825%
CCOC(=O)C1=NOC(Cn2cc(C(C)=O)c(=O)[nH]c2=O)C1 (stereo not drawn) | 9.04%
CC(=O)c1ccc(NC2c3ncccc3C(=O)N2Cc2ccc(F)cc2)cc1 (stereo not drawn) | -8.58%
COc1ccc(C(C)=O)cc1CC(C(=O)c1ccc(C)cc1)N(C)C (stereo not drawn) | -6.61%
COc1ccc(-c2nc3n(c(=O)c2C#N)CCS3)cc1OC | -2.65%
CN(C(=O)CCn1c(=S)oc2ccccc21)C1CCCCC1 | -14.5%
N#Cc1c(C(F)(F)F)cc(=O)n2c1[nH]c1ccccc12 | 22.4%
CCOC(=O)Nc1ccc2c(c1)N(C(=O)CCN(C)C)c1ccccc1S2.Cl | -41.4%
COc1ccc(C2NC(c3ccc(OC)cc3)C(c3ccccc3)C(=O)C2c2ccccc2)cc1 (stereo not drawn) | -17.7%
